# Laboratory results: PubChem BioAssay AID2546 (National Center for Advancing Translational Sciences (NCATS), 2010)
# In all, about 310,000 compounds went through this assay and about 11,000 (3.5%) were called active. This list was built around the results that the source calls inconclusive (neither active nor inactive); the mix of calls is not that of the screen. Calls follow the shape of the dose curve; as a rule, active = well fitted inhibition curve with a large enough effect; inconclusive = small, poorly fitted or top-dose-only effect, or effect the other way; inactive = flat fitted curve, though single readings scatter. Potencies of inconclusive entries are left out as doubtful fits.
# Assay: VP16 counterscreen qHTS for inhibitors of ROR gamma transcriptional activity;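 also: Gal4-VP16 expression switched on by copper sulfate through the metallothionein promoter; nearly all actives have a fitted effect of over 50% in size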
# Conditions: Drosophila S2 Gal4-VP16 UAS-luciferase, luminescence, 20 h; activity, negative = inhibition: at 53.6 µM (top of the series)
# % is scaled to controls: 0 for no effect and ±100 for the full control effect; potency is read from the fitted curve at half-maximal effect; tags tell the direction and shape of the fitted curve.
Compound,Potency,"activity, negative = inhibition"
Cn1c(=O)c(C(=O)NNC(=O)c2ccccc2Cl)c(O)c2ccccc21,"inconclusive [inhibitor, single point]",
CC(C)c1ccc(N2C(=O)CC(Sc3ncn[nH]3)C2=O)cc1 (stereo not given),"inconclusive [inhibitor, single point]",
O=C1ON=C(c2ccccc2)/C1=C/c1ccc(O)cc1,"inconclusive [inhibitor, single point]",
NC(=O)c1oc2ccccc2c1NC(=O)C1COc2ccccc2O1 (stereo not given),"inconclusive [activator, single point]",
CCCCn1nnc(NC(=S)NC(=O)c2ccc(-c3cccc(Cl)c3Cl)o2)n1,active: 1.12 µM,
C/C(=N\Nc1ccccn1)c1ccc(C(C)C)cc1,active: 11.2 µM,
Cc1ccc(S(=O)(=O)Nc2ccc(NS(=O)(=O)c3ccc(C)cc3)c3ncccc23)cc1,active: 5.62 µM,
Cc1ccc2oc(-c3cccc(NC(=S)NC(=O)/C=C/c4ccco4)c3)nc2c1,active: 10 µM,
CCCC1=[N+](CC(=O)c2ccc(C)cc2)CCn2cccc21,,inactive: -1.52%
Cc1ccc(NC2CCCN(C(=O)c3ccc(F)cc3)C2)cc1C (stereo not given),,inactive: 4.35%
CC(C(=O)O)N1C(=O)/C(=C/C=C/c2ccco2)SC1=S (stereo not given),,inactive: 0.473%
Fc1ccc(/C=C\c2nccc3c2[nH]c2ccccc23)cc1,"inconclusive [inhibitor, partial curve, poor fit]",
O=Cc1ccc(O)c2ncccc12,active: 0.562 µM,
COc1ccc(C(=O)N2CC3(C)CC2CC(C)(C)C3)cc1OC (stereo not given),"inconclusive [inhibitor, partial curve]",
COc1ccc(C2CC(O)(c3ccccc3)Oc3cc(C)cc(C)c32)cc1 (stereo not given),"inconclusive [inhibitor, single point]",
CC1=CC(C)(C)NC(=S)N1c1cccc2ccccc12,active: 5.01 µM,
CCN(CC)C(=O)CSc1nc(C)cc(-c2cccs2)c1C#N,,inactive: 8.8%
COc1ccc(-n2c(=O)c(-c3cn(C)c4ccccc34)nc3cnc(N4CCNCC4)nc32)cc1,"inconclusive [inhibitor, single point]",
CCNC(=O)CC1C(=O)N(c2ccc(F)cc2)C(=O)N1Cc1ccc(OC)cc1 (stereo not given),"inconclusive [activator, single point]",
C/C(=C\C(=O)c1cccnc1)Nc1ccc(O)cc1,"inconclusive [inhibitor, single point]",
CCOc1cc(NC(=S)NC)c(OCC)cc1NC(=O)c1ccc(OC)cc1,"inconclusive [inhibitor, single point]",
CC(C)=N/N=C1/NC(=O)C(CC(=O)Nc2cc(Cl)ccc2C)S1 (stereo not given),"inconclusive [inhibitor, single point]",
O=C(CN1c2ccccc2Sc2ccccc21)NNC(=S)Nc1ccc(Cl)cc1Cl,"inconclusive [inhibitor, partial curve]",
N#Cc1c(N)n(-c2cccc(C(=O)O)c2)c2nc3ccccc3nc12,,inactive: -4.12%
CCN1/C(=C\C=C2\C(=O)N(C)C(=S)N2C)Sc2ccccc21,"inconclusive [inhibitor, single point]",

Compound,Potency,"activity, negative = inhibition"
O=C(Nc1ccon1)c1cc(-c2ccccc2)nc2ccccc12,"inconclusive [inhibitor, single point]",
CCN(CC)c1ccc(/C=N/NC(=O)c2c(Cl)c(C)nn2C)cc1,"inconclusive [inhibitor, single point]",
COC(=O)c1cn[nH]c1NC(=S)Nc1ccc(C)cc1Cl,active: 3.55 µM,
O=C(COC(=O)c1cc(NS(=O)(=O)c2cccs2)ccc1O)Nc1ccc(F)c(F)c1F,,inactive: -8.3%
Cc1nc(N)sc1N=Nc1ccc(Br)cc1,"inconclusive [inhibitor, single point]",
CCOc1ccc(NC(=O)CCC(=O)c2ccc(Br)cc2)cc1,,inactive: 5.71%
COc1ccc(NS(=O)(=O)c2ccc3oc(SC4CCOC4=O)nc3c2)cc1 (stereo not given),"inconclusive [inhibitor, single point]",
COC(=O)Cc1ccc(NC(=S)N2CCC(Cc3ccccc3)CC2)cc1,"inconclusive [inhibitor, single point]",
CCOC(=O)N1CCN(C(=O)c2ccc(CSc3ccc(Cl)cc3)cc2)CC1,"inconclusive [inhibitor, single point]",
COc1ccc(CCNC(=O)CCn2cccc2)cc1OC,,inactive: -3.11%
Cc1cc(/C=c2/sc3nc4ccccc4n3c2=O)c(C)n1-c1ccccn1,active: 0.251 µM,
Cc1nnc(NC(=O)CSc2nnc3c(n2)[nH]c2ccc(Br)cc23)s1,,inactive: 4.19%
COc1ccc(CNc2nnnn2C)c(OC)c1,,inactive: 1.97%
Cc1cc(NC(=O)c2cccc(C(=O)Nc3cc(C)on3)n2)no1,"inconclusive [inhibitor, single point]",
Cc1ccc(CNC(=O)CC(C)S(=O)(=O)c2ccc3c(c2)NC(=O)C(C)S3)cc1 (stereo not given),"inconclusive [inhibitor, single point]",
O=C(O)/C=C/c1cnn(-c2ccccc2)c1,active: 14.1 µM,
COc1ccc(-c2oc3cc(OC)c(OC(C)=O)c(OC)c3c(=O)c2OC)cc1OC(C)=O,,inactive: -2.85%
COc1ccc(NC(=O)Nc2ccccc2C(N)=O)cc1OC,"inconclusive [activator, single point]",
O=C1CC(c2ccco2)Cc2nc(N3CCN(Cc4ccc5c(c4)OCO5)CC3)ncc21 (stereo not given),,inactive: -15%
COC(=O)c1ccc(Sc2ccccn2)c([N+](=O)[O-])c1,"inconclusive [activator, single point]",
Nn1cnnc1N/N=C/c1ccc(F)cc1,"inconclusive [inhibitor, single point]",
COc1cc(-c2nnc(-c3cc(OC)c(OC)c(OC)c3)o2)cc(OC)c1OC,,inactive: 4.1%
CN1CCN(c2ncc3nc(-c4ccccc4)c(=O)n(-c4ccccc4)c3n2)CC1,,inactive: -8.97%
Cc1cccc(C(=O)NNC(=O)c2ccc(F)cc2)c1,"inconclusive [activator, single point]",
O=S(=O)(NCCNc1ncc(C(F)(F)F)cc1Cl)C(F)(F)F,"inconclusive [inhibitor, single point]",

Compound,Potency,"activity, negative = inhibition"
O=C1C2C3C=CC(C3)C2C(=O)N1c1ccc(N2CCN(c3ccccn3)CC2)c([N+](=O)[O-])c1 (stereo not given),active: 3.98 µM,
CC(C)CN(CCCNC(=O)CC1Oc2ccccc2NC1=O)CC(C)C (stereo not given),"inconclusive [activator, single point]",
Cc1ccccc1-n1nc(C(=O)c2cccs2)cc(-c2nc3ccccc3[nH]2)c1=N,active: 0.891 µM,
CC(=O)NCCNc1nc2c(-c3ccccc3)nnn2c2ccccc12,,inactive: -16.1%
COCCOC(=O)C1=C(C)NC2(O)c3ccccc3C(=O)C12O (stereo not given),"inconclusive [inhibitor, single point]",
COC(=O)Cc1ccc(NC(=S)N2CCCC(CO)C2)cc1 (stereo not given),active: 7.94 µM,
O=C(Cc1ccc(Cl)cc1Cl)Nc1cccc(S(=O)(=O)Nc2ccccc2F)c1,"inconclusive [inhibitor, single point]",
Cc1ccccc1S(=O)(=O)Cc1ccc(C(=O)NC2CCC(C)CC2)o1 (stereo not given),,inactive: -0.319%
Cc1ccc2nc(-c3ccc(SCC(=O)Nc4nc(C)cs4)nc3)[nH]c2c1,"inconclusive [activator, full curve, poor fit]",
COc1ccccc1C1CC(c2ccco2)=NN1c1ccccc1 (stereo not given),,inactive: -5.68%
Cc1cccc(Oc2ncnc(N)c2[N+](=O)[O-])c1C,,inactive: -0.128%
CCc1ccc(-n2c(C)cc(/C=N/NC(=O)c3ccncc3)c2C)cc1,active: 20 µM,
CN1/C(=C/C(=S)NC(=O)C2(C)CC2(Cl)Cl)C(C)(C)c2ccccc21 (stereo not given),"inconclusive [inhibitor, single point]",
CCn1c(SCc2cc(=O)[nH]c3ccccc23)nnc1C1CC1,"inconclusive [activator, single point]",
COc1ccc(C(=O)CCN2CCN(c3ccccc3OC)CC2)cc1,active: 2.82 µM,
COc1ccc(S(=O)(=O)N2CCCCC2)cc1NS(=O)(=O)c1cc(Cl)ccc1Cl,"inconclusive [inhibitor, single point]",
CN(C1CCCC1)C1CCN(C(=O)CNC(=O)/C=C/c2ccc(F)cc2)CC1,"inconclusive [inhibitor, partial curve]",
CC(=O)Nc1cc(-c2ccccc2)ccc1O,"inconclusive [inhibitor, single point]",
C#CCOC(=O)c1ccccc1C(=O)n1nnc2ccccc21,"inconclusive [inhibitor, single point]",
CC1CCN(C(=S)NC(=O)c2ccccc2Br)CC1,active: 3.55 µM,
COc1cc(/C=N/NC(=O)C2C3CCCCC32C)cc(Br)c1O (stereo not given),active: 5.01 µM,
COC(=O)C1=CN(Cc2ccc(OC)c(OC)c2)C=C(C(=O)OC)C1c1cccc(OC)c1OC,,inactive: 3.86%
COc1cc(/C=C2\CC/C(=C\c3cc(OC)c(O)c(OC)c3)C2=O)cc(OC)c1O,"inconclusive [inhibitor, single point]",
Cc1occc1-c1nnc(SCCCC(=O)c2ccc(F)cc2)n1C,"inconclusive [inhibitor, single point]",
CCCCN1C(=O)/C(=C(/C#N)C(N)=O)c2ccccc21,"inconclusive [inhibitor, single point]",
